Laboratory results taken from patent US20230301999A1, “METHODS OF TREATING GOUT” (Horizon Therapeutics USA, Inc., priority 2020, published 2023).

Tested on: adult patients with uncontrolled gout
Assay: Open-label study of pegloticase with MTX: serum uric acid observed values and change from baseline
Assay type: in vivo, human
Source text: KXX treatment typically is monitored using regular determination of the patient's SUA levels. A reduction in the serum uric acid level relative to the SUA in the patient before KXX treatment may generally be indicative of successful treatment with KXX, alone, or co-administered with an immunosuppressive agent or therapy, such as MTX, as described herein. Collection and measurement of a patient's serum uric acid levels are known to those of skill in the art. In some embodiments, the patient's serum uric acid levels are assayed before each KXX therapy. In some embodiments, any suitable method for collecting appropriate samples and methods of measuring or quantifying uric acid levels may be used in accordance with the disclosure.
Criteria for Evaluation: Efficacy was assessed by SUA levels, tender and swollen joint counts, patient and physician global assessments of gout, joint pain, and DECT.
Patients were administered oral MTX (15 mg/week) and folate (1 mg/day) 4 weeks prior to the first pegloticase infusion (Day 1) and throughout the pegloticase treatment period. Blood was drawn prior to each infusion to measure sUA level, monitor clinical parameters, and examine for ADA development. All patients followed typical IR prophylaxis protocols (fexofenadine one day before and the morning of each infusion and acetaminophen and IV corticosteroid the morning of each infusion). […] The primary study outcome was the proportion of responders, defined as sUA<6 mg/dL for at least 80% of the time during month 6 (weeks 20, 22, and 24). All analyses were performed on a modified intent-to-treat population, defined as patients who received ≥1 pegloticase infusion.

[1] = Month 6 sUA responders, Week 46 - Pre-Infusion, n=2
[2] = Month 6 sUA responders, Week 48 - Post-Infusion, n=3
[3] = Month 6 sUA responders, Week 48 - Pre-Infusion, n=2
[4] = Month 6 sUA responders, Week 50 - Post-Infusion, n=3
[5] = Month 6 sUA responders, Week 50 - Pre-Infusion, n=2
[6] = Month 6 sUA responders, Week 52/ET, n=2

For pegloticase, the “sUA observed, mean” value [1] was 0.30 mg/dL, the “sUA observed, median” value [1] was 0.30 mg/dL and the “sUA < 6 mg/dL, %” value [2] was “(100%)”. The “sUA observed, median” value [2] was 0.30 mg/dL, the “sUA < 6 mg/dL, %” value [3] was “(100%)” and the “sUA observed, mean” value [3] was 0.30 mg/dL. For the same substance, the “sUA observed, median” value [3] was 0.30 mg/dL, the “sUA < 6 mg/dL, %” value [4] was “(100%)” and the “sUA observed, median” value [4] was 0.30 mg/dL. For the same substance, the “sUA < 6 mg/dL, %” value [5] was “(100%)”, the “sUA observed, mean” value [5] was 0.30 mg/dL and the “sUA observed, median” value [5] was 0.30 mg/dL. For the same substance, the “sUA < 6 mg/dL, %” value [6] was “(100%)”, the “sUA observed, mean” value [6] was 0.30 mg/dL and the “sUA observed, median” value [6] was 0.30 mg/dL. The “sUA < 6 mg/dL, %” value (Week 1) was “(100%)”, the “sUA Change from Baseline, Mean” value (Week 1) was -7.28 mg/dL and the “sUA observed, mean” value (Week 1) was 0.30 mg/dL. For the same substance, the “sUA observed, median” value (Week 1) was 0.30 mg/dL, the “sUA < 6 mg/dL, %” value (Week 2 - Post-Infusion) was “(100%)” and the “sUA Change from Baseline, Mean” value (Week 2 - Post-Infusion) was -8.86 mg/dL. For the same substance, the “sUA observed, mean” value (Week 2 - Post-Infusion) was 0.30 mg/dL, the “sUA observed, median” value (Week 2 - Post-Infusion) was 0.30 mg/dL and the “sUA < 6 mg/dL, %” value (Week 2 - Pre-Infusion) was “(92.9%)”. The “sUA observed, mean” value (Week 2 - Pre-Infusion) was 1.26 mg/dL, the “sUA observed, median” value (Week 2 - Pre-Infusion) was 0.30 mg/dL and the “sUA < 6 mg/dL, %” value (Week 4 - Post-Infusion) was “(100%)”. For the same substance, the “sUA Change from Baseline, Mean” value (Week 4 - Post-Infusion) was -8.92 mg/dL, the “sUA observed, mean” value (Week 4 - Post-Infusion) was 0.30 mg/dL and the “sUA observed, median” value (Week 4 - Post-Infusion) was 0.30 mg/dL. The “sUA < 6 mg/dL, %” value (Week 4 - Pre-Infusion) was “(85.7%)”, the “sUA Change from Baseline, Mean” value (Week 4 - Pre-Infusion) was -7.54 mg/dL and the “sUA change from baseline, median” value (Week 4 - Pre-Infusion) was -8.00 mg/dL. For the same substance, the “sUA observed, mean” value (Week 4 - Pre-Infusion) was 1.61 mg/dL, the “sUA observed, median” value (Week 4 - Pre-Infusion) was 0.30 mg/dL and the “sUA < 6 mg/dL, %” value (Week 6 - Post-Infusion) was “(100%)”. The “sUA observed, mean” value (Week 6 - Post-Infusion) was 0.30 mg/dL, the “sUA observed, median” value (Week 6 - Post-Infusion) was 0.30 mg/dL and the “sUA < 6 mg/dL, %” value (Week 6 - Pre-Infusion) was “(92.3%)”. For the same substance, the “sUA Change from Baseline, Mean” value (Week 6 - Pre-Infusion) was -8.31 mg/dL, the “sUA observed, mean” value (Week 6 - Pre-Infusion) was 0.91 mg/dL and the “sUA observed, median” value (Week 6 - Pre-Infusion) was 0.30 mg/dL. For the same substance, the “sUA < 6 mg/dL, %” value (Week 7) was “(100%)”, the “sUA observed, mean” value (Week 7) was 0.30 mg/dL and the “sUA observed, median” value (Week 7) was 0.30 mg/dL. The “sUA < 6 mg/dL, %” value (Week 8 - Post-Infusion) was “(100%)”, the “sUA observed, mean” value (Week 8 - Post-Infusion) was 0.30 mg/dL and the “sUA observed, median” value (Week 8 - Post-Infusion) was 0.30 mg/dL. The “sUA < 6 mg/dL, %” value (Week 8 - Pre-Infusion) was “(91.7%)”, the “sUA Change from Baseline, Mean” value (Week 8 - Pre-Infusion) was -8.20 mg/dL and the “sUA observed, mean” value (Week 8 - Pre-Infusion) was 1.08 mg/dL. The “sUA observed, median” value (Week 8 - Pre-Infusion) was 0.30 mg/dL, the “sUA < 6 mg/dL, %” value (Week 10 - Post-Infusion) was “(100%)” and the “sUA observed, mean” value (Week 10 - Post-Infusion) was 0.30 mg/dL. For the same substance, the “sUA observed, median” value (Week 10 - Post-Infusion) was 0.30 mg/dL, the “sUA < 6 mg/dL, %” value (Week 10 - Pre-Infusion) was “(91.7%)” and the “sUA Change from Baseline, Mean” value (Week 10 - Pre-Infusion) was -8.33 mg/dL. The “sUA observed, mean” value (Week 10 - Pre-Infusion) was 0.95 mg/dL, the “sUA observed, median” value (Week 10 - Pre-Infusion) was 0.30 mg/dL and the “sUA < 6 mg/dL, %” value (Week 12 - Post-Infusion) was “(100%)”. The “sUA observed, mean” value (Week 12 - Post-Infusion) was 0.30 mg/dL, the “sUA observed, median” value (Week 12 - Post-Infusion) was 0.30 mg/dL and the “sUA < 6 mg/dL, %” value (Week 12 - Pre-Infusion) was “(100%)”. The “sUA observed, mean” value (Week 12 - Pre-Infusion) was 0.30 mg/dL, the “sUA observed, median” value (Week 12 - Pre-Infusion) was 0.30 mg/dL and the “sUA < 6 mg/dL, %” value (Week 14 - Post-Infusion) was “(100%)”. For the same substance, the “sUA observed, mean” value (Week 14 - Post-Infusion) was 0.30 mg/dL, the “sUA observed, median” value (Week 14 - Post-Infusion) was 0.30 mg/dL and the “sUA < 6 mg/dL, %” value (Week 14 - Pre-Infusion) was “(100%)”.
